In US6251854A, “N-methyl-d-aspartate receptor channel blockers and method for identifying such” (priority 1999, dated 2001):
For some of these results: At least one peptide structure holds a part that was inferred or is arguable (an end, a ring closure or a residue). For some of these results: At least one compound was matched to its structure with a doubt left. Non-standard residues stand in square brackets, D forms with d. Residues, ends and D or L forms follow the SMILES beside them. No end group written: not given here.

Assays:
[1] = molecular target: T1, human NR1-NR2A NMDA receptor subunits (Homo sapiens, UniProt Q05586+Q12879); experiment: amphibian oocyte current blockade assay (agonist-evoked currents); assay type: cell-based; settings: Table 1, peptides; NMDA receptor current blockade in oocytes
T1 construct: expressed in transfected cells; host or cells: Xenopus laevis oocytes
Protocol: Briefly, in the amphibian oocyte current blockade assay, human NMDA receptors are expressed in the oocytes. The receptors are stimulated in the cells by NMDA agonists. Agonist-induced current is the control against which current blockade levels achieved by incubating the oocytes with candidate NMDA blockers are measured.
(A) NMDA specific receptor channel blocking peptides ("NMDA blockers") were identified by screening synthetic combinatorial libraries (SCL) (see e.g., the library and peptide synthesis methods described in Ostresh, et al., Meth Enzymol (1996) 267:220-34, incorporated herein by reference) and assaying for blockade of agonist-evoked currents by the human NR1-NR2A NMDA receptor subunits expressed in amphibian (Xenopus laevis) oocytes (see, for example, the assay method described in Ferrer-Monteil and Montal, METHODS:A Companion to Methods in Enzymology (1994) 6:60-68, incorporated herein by reference).
(D) The compounds prepared in part (B) above were examined for activity against human brain NMDA receptors (composed of NR1 and NR2A subunits) expressed in oocytes. Ionic currents were activated by 200 μM L-glutamate (L-GIu) 20 μM glycine (Gly), at a holding potential Vh =[…]. Ba^2+ /flufenamic Ringer solution was supplemented with agonist and compounds of the invention, and blockade activity determined for each compound.
An example of how the assay method is performed follows, with reference to FIG. 5.

[2] = system: cultured hippocampal neurons; experiment: hippocampal neuronal cell death model (NMDA excitotoxicity); assay type: cell-based, mammalian; settings: neurons exposed to 200 μM NMDA for 20 minutes (FIG. 3)
Excerpt: In addition to approved clinical trials of the inventive compounds in humans, their efficacy can be confirmed in various known animal models for cerebral impairments associated with NMDA receptor pathology, such as the rat ischemia model (e.g., Seif, et al., Eur J Pharmacol (1990) 185:19-24 and Block and Schwara, Neurosci Lett (1996) 208:41-44). Useful in vitro models for testing neuroprotective drug effects in cerebral neuronal cells are also known and include the chick embryo hypoxia model (e.g., Krieglstein, et al., J Pharmacol Meth (1988) 20:39-46) and the mammalian hippocampal neuronal system in which the inventive compounds were tested (e.g., Schinder, et al., supra). These references are each incorporated by reference to illustrate knowledge in the art concerning models of cerebral dysfunction. Those of ordinary skill in the art will be familiar with, or can readily ascertain, other suitable models for use in testing the compounds of the invention.
Testing of the NMDA blockers of the invention in a hippocampal cell model for neurodysfunction (using the method described in Schinder, et al., J Neurosci (1996) 16:6125-33, incorporated herein by reference) yielded surprising results. […]

T1 sequence (Q12879 23-1464, other chains not shown): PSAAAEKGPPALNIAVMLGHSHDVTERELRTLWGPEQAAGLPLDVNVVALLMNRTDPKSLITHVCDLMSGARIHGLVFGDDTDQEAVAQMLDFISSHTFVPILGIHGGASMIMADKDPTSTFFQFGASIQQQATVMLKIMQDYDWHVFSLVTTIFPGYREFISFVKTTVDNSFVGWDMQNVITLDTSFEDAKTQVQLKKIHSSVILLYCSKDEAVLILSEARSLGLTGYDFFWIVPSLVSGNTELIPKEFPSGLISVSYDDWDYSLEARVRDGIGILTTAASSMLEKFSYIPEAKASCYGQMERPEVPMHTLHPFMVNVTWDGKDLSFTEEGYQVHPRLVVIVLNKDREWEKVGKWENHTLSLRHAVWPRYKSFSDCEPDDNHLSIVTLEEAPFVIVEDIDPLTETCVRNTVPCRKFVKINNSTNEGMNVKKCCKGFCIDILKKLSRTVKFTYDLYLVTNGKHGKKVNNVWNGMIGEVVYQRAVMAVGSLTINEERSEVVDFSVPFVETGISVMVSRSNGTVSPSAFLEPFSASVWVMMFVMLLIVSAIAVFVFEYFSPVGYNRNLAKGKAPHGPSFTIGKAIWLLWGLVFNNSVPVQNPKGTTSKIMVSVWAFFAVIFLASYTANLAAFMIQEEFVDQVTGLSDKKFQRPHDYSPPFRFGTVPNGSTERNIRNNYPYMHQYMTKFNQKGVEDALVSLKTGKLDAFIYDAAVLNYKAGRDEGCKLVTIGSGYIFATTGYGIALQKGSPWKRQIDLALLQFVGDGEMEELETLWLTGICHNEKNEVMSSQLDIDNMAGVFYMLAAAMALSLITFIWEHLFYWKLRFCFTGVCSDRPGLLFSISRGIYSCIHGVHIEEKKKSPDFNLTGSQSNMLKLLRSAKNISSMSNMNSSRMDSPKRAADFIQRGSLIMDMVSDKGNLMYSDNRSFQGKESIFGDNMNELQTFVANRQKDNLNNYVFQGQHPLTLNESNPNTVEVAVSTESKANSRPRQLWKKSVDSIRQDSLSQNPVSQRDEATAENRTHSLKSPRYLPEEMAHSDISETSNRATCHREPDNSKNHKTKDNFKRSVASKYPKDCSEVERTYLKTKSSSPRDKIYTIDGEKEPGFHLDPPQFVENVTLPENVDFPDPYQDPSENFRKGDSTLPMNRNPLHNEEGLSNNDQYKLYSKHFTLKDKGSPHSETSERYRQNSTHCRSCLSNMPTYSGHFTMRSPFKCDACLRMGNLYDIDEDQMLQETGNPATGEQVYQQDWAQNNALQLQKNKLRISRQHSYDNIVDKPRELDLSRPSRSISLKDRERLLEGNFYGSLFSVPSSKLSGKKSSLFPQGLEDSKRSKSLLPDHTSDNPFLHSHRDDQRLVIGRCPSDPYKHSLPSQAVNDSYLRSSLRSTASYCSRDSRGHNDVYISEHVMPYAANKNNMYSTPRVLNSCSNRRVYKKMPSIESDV

| Molecule | IC50 [1] | protection of neurons from excitotoxic cell death [2] |
| --- | --- | --- |
| N=C(N)NCCC[C@H](NC(=O)[C@@H](N)CCCNC(=N)N)C(=O)N[C@@H](Cc1c[nH]c2ccccc12)C(N)=O [RRW] (H-Arg-Arg-Trp-NH2; C-terminus assumed) | 2 ± 0.5 µM | – |
| RRWWIN-NH2 (C-terminus assumed) [RRWWIN] | 2.3 ± 0.3 µM | – |
| RRWWRF-NH2 (C-terminus assumed) [RRWWRF] | 3.7 ± 1 µM | – |
| RRWWIW-NH2 (C-terminus assumed) [RRWWIW] | 1 ± 0.04 µM | – |
| Ac-MCRRKR-NH2 [B12#1] | – | protected neurons from excitotoxic cell death |
| N=C(N)NCCC[C@H](NC(=O)[C@H](CCCNC(=N)N)NC(=O)[C@@H](N)CCCNC(=N)N)C(N)=O [RRR] (H-Arg-Arg-Arg-NH2; C-terminus assumed) | 5 ± 6 µM | – |
| RRWWII-NH2 (C-terminus assumed) [RRWWII] | 2 ± 0.3 µM | – |
| RRWWIQ-NH2 (C-terminus assumed) [RRWWIQ] | 4 ± 1 µM | – |
| N=C(N)NCCC[C@@H](N)C(=O)N[C@H](CCCNC(=N)N)C(=O)N[C@H](CCCNC(=N)N)C(=O)N[C@H](Cc1c[nH]c2ccccc12)C(=O)N[C@H](Cc1ccccc1)C(=O)N[C@H](Cc1ccccc1)C(N)=O [rrrwff] (H-[dR][dR][dR][dW][dF][dF]-NH2; N-terminus and C-terminus assumed) | 40 ± 21 µM | – |
| N=C(N)NCCC[C@@H](N)C(=O)N[C@H](CCCNC(=N)N)C(=O)N[C@H](CCCNC(=N)N)C(=O)N[C@H](Cc1c[nH]c2ccccc12)C(=O)N[C@H](CCCNC(=N)N)C(=O)N[C@H](Cc1ccccc1)C(N)=O [rrrwrf] (H-[dR][dR][dR][dW][dR][dF]-NH2; N-terminus and C-terminus assumed) | 6 ± 1 µM | – |
